The results in this text go back to publication PMC9911399, “Two distinct binding modes provide the RNA-binding protein RbFox with extraordinary sequence specificity”.

Changes are numbered by the printed parent chain; changes in the protein carry UniProt numbers. The list shows a part of the results.

B1: UUAAUUA (DNA:RNA)
RNA: GGGAGACCGGAAUUCAGAUUGUCCUUAAUUAUUAAAUCCCGUCGUAGCCACCA
DNA 1: CAATCTGAATTCCGGTCTCCC
DNA 2: TGGTGGCTACGACGGGATT
B2: AGAUGGU (DNA:RNA)
RNA: B1 RNA with U25A, U26G, A28U, U29G, U30G, A31U
DNA 1: CAATCTGAATTCCGGTCTCCC
DNA 2: TGGTGGCTACGACGGGATT
B3: CAUGUAG (DNA:RNA)
RNA: B1 RNA with U25C, U26A, A27U, A28G, U30A, A31G
DNA 1: CAATCTGAATTCCGGTCTCCC
DNA 2: TGGTGGCTACGACGGGATT
B4: CUCUUUU (DNA:RNA)
RNA: B1 RNA with U25C, A27C, A28U, A31U
DNA 1: CAATCTGAATTCCGGTCTCCC
DNA 2: TGGTGGCTACGACGGGATT
B5: CAGAACA (DNA:RNA)
RNA: B1 RNA with U25C, U26A, A27G, U29A, U30C
DNA 1: CAATCTGAATTCCGGTCTCCC
DNA 2: TGGTGGCTACGACGGGATT
B6: UAUGGUU (DNA:RNA)
RNA: B1 RNA with U26A, A27U, A28G, U29G, A31U
DNA 1: CAATCTGAATTCCGGTCTCCC
DNA 2: TGGTGGCTACGACGGGATT
B7: UUCUGCC (DNA:RNA)
RNA: B1 RNA with A27C, A28U, U29G, U30C, A31C
DNA 1: CAATCTGAATTCCGGTCTCCC
DNA 2: TGGTGGCTACGACGGGATT
B8: CCUUACA (DNA:RNA)
RNA: B1 RNA with U25C, U26C, A27U, A28U, U29A, U30C
DNA 1: CAATCTGAATTCCGGTCTCCC
DNA 2: TGGTGGCTACGACGGGATT
B9: CACGGGG (DNA:RNA)
RNA: GGGAGACCGGAAUUCAGAUUGUCCCACGGGGUUAAAUCCCGUCGUAGCCACCA
DNA 1: CAATCTGAATTCCGGTCTCCC
DNA 2: TGGTGGCTACGACGGGATT
B10: GCCUUCU (DNA:RNA)
RNA: B9 RNA with C25G, A26C, G28U, G29U, G30C, G31U
DNA 1: CAATCTGAATTCCGGTCTCCC
DNA 2: TGGTGGCTACGACGGGATT
B11: AUAAGAG (DNA:RNA)
RNA: B1 RNA with U25A, U29G, U30A, A31G
DNA 1: CAATCTGAATTCCGGTCTCCC
DNA 2: TGGTGGCTACGACGGGATT
B12: GGCUGCA (DNA:RNA)
RNA: B9 RNA with C25G, A26G, G28U, G30C, G31A
DNA 1: CAATCTGAATTCCGGTCTCCC
DNA 2: TGGTGGCTACGACGGGATT
B13: UGUGGCA (DNA:RNA)
RNA: B9 RNA with C25U, A26G, C27U, G30C, G31A
DNA 1: CAATCTGAATTCCGGTCTCCC
DNA 2: TGGTGGCTACGACGGGATT
B14: UUCAAAU (DNA:RNA)
RNA: B1 RNA with A27C, U29A, U30A, A31U
DNA 1: CAATCTGAATTCCGGTCTCCC
DNA 2: TGGTGGCTACGACGGGATT
B15: GCGCUGA (DNA:RNA)
RNA: B1 RNA with U25G, U26C, A27G, A28C, U30G
DNA 1: CAATCTGAATTCCGGTCTCCC
DNA 2: TGGTGGCTACGACGGGATT
B16: GACACGU (DNA:RNA)
RNA: B9 RNA with C25G, G28A, G29C, G31U
DNA 1: CAATCTGAATTCCGGTCTCCC
DNA 2: TGGTGGCTACGACGGGATT
B17: UGUAAGU (DNA:RNA)
RNA: B1 RNA with U26G, A27U, U29A, U30G, A31U
DNA 1: CAATCTGAATTCCGGTCTCCC
DNA 2: TGGTGGCTACGACGGGATT
B18: AGACUCG (DNA:RNA)
RNA: B1 RNA with U25A, U26G, A28C, U30C, A31G
DNA 1: CAATCTGAATTCCGGTCTCCC
DNA 2: TGGTGGCTACGACGGGATT
B19: AUCCGUC (DNA:RNA)
RNA: B9 RNA with C25A, A26U, G28C, G30U, G31C
DNA 1: CAATCTGAATTCCGGTCTCCC
DNA 2: TGGTGGCTACGACGGGATT
B20: GUCAAGA (DNA:RNA)
RNA: B1 RNA with U25G, A27C, U29A, U30G
DNA 1: CAATCTGAATTCCGGTCTCCC
DNA 2: TGGTGGCTACGACGGGATT
B21: AUACGGA (DNA:RNA)
RNA: B1 RNA with U25A, A28C, U29G, U30G
DNA 1: CAATCTGAATTCCGGTCTCCC
DNA 2: TGGTGGCTACGACGGGATT
B22: UCAAUCU (DNA:RNA)
RNA: B1 RNA with U26C, U30C, A31U
DNA 1: CAATCTGAATTCCGGTCTCCC
DNA 2: TGGTGGCTACGACGGGATT
B23: GCCACGG (DNA:RNA)
RNA: B9 RNA with C25G, A26C, G28A, G29C
DNA 1: CAATCTGAATTCCGGTCTCCC
DNA 2: TGGTGGCTACGACGGGATT
B24: CACAACU (DNA:RNA)
RNA: B9 RNA with G28A, G29A, G30C, G31U
DNA 1: CAATCTGAATTCCGGTCTCCC
DNA 2: TGGTGGCTACGACGGGATT
B25: GUCGACU (DNA:RNA)
RNA: B9 RNA with C25G, A26U, G29A, G30C, G31U
DNA 1: CAATCTGAATTCCGGTCTCCC
DNA 2: TGGTGGCTACGACGGGATT
B26: UACGCAA (DNA:RNA)
RNA: B9 RNA with C25U, G29C, G30A, G31A
DNA 1: CAATCTGAATTCCGGTCTCCC
DNA 2: TGGTGGCTACGACGGGATT
B27: AGCCUCU (DNA:RNA)
RNA: B9 RNA with C25A, A26G, G28C, G29U, G30C, G31U
DNA 1: CAATCTGAATTCCGGTCTCCC
DNA 2: TGGTGGCTACGACGGGATT
B28: GAGAGAA (DNA:RNA)
RNA: B9 RNA with C25G, C27G, G28A, G30A, G31A
DNA 1: CAATCTGAATTCCGGTCTCCC
DNA 2: TGGTGGCTACGACGGGATT
B29: UUAGAAA (DNA:RNA)
RNA: B1 RNA with A28G, U29A, U30A
DNA 1: CAATCTGAATTCCGGTCTCCC
DNA 2: TGGTGGCTACGACGGGATT
B30: CUAAAUC (DNA:RNA)
RNA: B1 RNA with U25C, U29A, A31C
DNA 1: CAATCTGAATTCCGGTCTCCC
DNA 2: TGGTGGCTACGACGGGATT
B31: CGUAGAG (DNA:RNA)
RNA: B9 RNA with A26G, C27U, G28A, G30A
DNA 1: CAATCTGAATTCCGGTCTCCC
DNA 2: TGGTGGCTACGACGGGATT

The target of this assay is T1, RBFOX1 RRM (Homo sapiens, UniProt Q9NWB1 109-208).
T1 sequence: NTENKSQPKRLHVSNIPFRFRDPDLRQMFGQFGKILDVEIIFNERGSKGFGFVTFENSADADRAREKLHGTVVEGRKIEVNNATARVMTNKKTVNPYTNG
The assay can be described thus: EMSA; HiTS-Eq, 1 nM pool, 10 min; buffer printed only for the single-RNA assays: 10 mM Tris pH 7.5, 150 mM NaCl, 3.4 mM EDTA, 0.001% NP-40, 30 C. Particulars: tags: His6 N-terminal (pET28a); label: 5' 32P. The method, boiled down:
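A pool of RNA with 7 randomized nucleotides, 5′-radiolabelled and with DNA-annealed flanks, was equilibrated at 1 nM for 10 min in 50 µL with purified RbFox RRM, wild type or mutant, across increasing protein concentrations. Free RNA was separated by 8% native PAGE, excised, reverse-transcribed, barcoded by PCR and sequenced. Relative association constants were obtained from read-count changes of each RNA species versus the control reaction and normalised to the cognate motif.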
In the case of B1, the binding signal was 0.00488 KA relative to UGCAUGU. Regarding B2, the binding signal is 0.0135 KA relative to UGCAUGU. As to B3, the binding signal is 0.00711 KA relative to UGCAUGU. The value for B4 was 0.00743 KA relative to UGCAUGU; that for B5 was 0.00468 KA relative to UGCAUGU. On to B6, for which the binding signal is 0.0166 KA relative to UGCAUGU.

In the case of B7, the binding signal was 0.0181 KA relative to UGCAUGU.

Turning to B8, the binding signal was 0.00251 KA relative to UGCAUGU.

Take B9: the binding signal is 0.00447 KA relative to UGCAUGU. As for B10, the binding signal is 0.0164 KA relative to UGCAUGU. In the case of B11 it was 0.00975 KA relative to UGCAUGU.

For B12, the binding signal was 0.0278 KA relative to UGCAUGU. The value for B13 was 0.0223 KA relative to UGCAUGU. Regarding B14, the binding signal was 0.00324 KA relative to UGCAUGU. On to B15, for which the binding signal is 0.0232 KA relative to UGCAUGU. Regarding B16, the binding signal is 0.0126 KA relative to UGCAUGU. Consider B17, for which the binding signal is 0.0129 KA relative to UGCAUGU. With B18, the binding signal is 0.0108 KA relative to UGCAUGU. The value for B19 was 0.00536 KA relative to UGCAUGU. The value for B20 was 0.0104 KA relative to UGCAUGU. As to B21, the binding signal was 0.000461 KA relative to UGCAUGU. With B22, the binding signal was 0.00218 KA relative to UGCAUGU.

For the molecule B23, the binding signal is 0.0134 KA relative to UGCAUGU. With B24, the binding signal was 0.000963 KA relative to UGCAUGU.

Regarding B25, the binding signal is 0.0119 KA relative to UGCAUGU. In the case of B26 it was 0.00623 KA relative to UGCAUGU. Regarding B27, the binding signal was 0.00899 KA relative to UGCAUGU. In the case of B28 it was 0.0113 KA relative to UGCAUGU; in that of B29, 0.0116 KA relative to UGCAUGU. Consider B30, for which the binding signal was 0.00515 KA relative to UGCAUGU. As to B31, the binding signal is 0.01 KA relative to UGCAUGU.
